Laboratory results as given in PubChem BioAssay AID588855 (National Center for Advancing Translational Sciences (NCATS), 2011).
About 5,000 (1.2%) of roughly 410,000 compounds were called active. This list was built around the results that the source calls inconclusive (neither active nor inactive); the mix of calls is not that of the screen. Calls follow the shape of the dose curve; as a rule, active = well fitted inhibition curve with a large enough effect; inconclusive = small, poorly fitted or top-dose-only effect; inactive = no such curve, though single readings can be large or run the other way. Potencies beside an inconclusive call are fits to weak or partial responses and may not hold up.
Potency is read from the fitted curve at half-maximal effect; tags tell the direction and shape of the fitted curve.

Assay: qHTS for Inhibitors of TGF-b; also: nearly all actives have a fitted effect of over 65% in size
Settings: HepG2 CAGA-GFP TGF-b/SMAD3 reporter, GFP fluorescence, 18 h, TGF-beta stimulated, 500 pg/mL final; series mostly up to 46.1 µM
Procedure, shortened: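 HEPG2 CAGA-GFP reporter cells (1000/well, DMEM with 1% FBS) received compounds, then recombinant TGF-beta at 500 pg/mL final for 18 hours at 37 degrees C. Per-cell GFP summed per well was normalised to unstimulated and stimulated DMSO controls before curve fitting.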
For COc1cc(C(=O)Nc2cc(S(C)(=O)=O)ccc2Cl)ccc1OCC(=O)N1CCOCC1, the Potency was “inactive”. In the case of Cc1ccccc1C1NC(c2ccccc2C)C([N+](=O)[O-])C(C)(C)C1[N+](=O)[O-] (centres undefined), the Potency is reported as “inactive”. With S=C(Nc1cccc(Br)c1)N1CCn2cccc2C1c1cccnc1 (centres undefined) the Potency was inconclusive: 35.5 µM [inhibitor, single point]. In the case of COC(=O)Cc1c(C)c2ccc(OC3CCCCC3=O)c(C)c2oc1=O (centres undefined), the Potency is reported as inconclusive: 35.5 µM [inhibitor, single point]. In the case of O=C1NN(c2ccccc2)C(=O)/C1=C\c1coc2ccc(O)cc2c1=O, the Potency is reported as inconclusive: 20 µM [inhibitor, single point]. In the case of Cc1ccc2cc3c(nc2c1)OCC3, the Potency is reported as inconclusive: 2.82 µM [inhibitor, full curve]. For COc1ccc(NC(=O)c2ccccc2OCC(=O)Nc2ccc(Br)cc2)cc1, the Potency was “inactive”. For O=S(=O)(c1ccc2[nH]c3c(c2c1)CCCCC3)N1CCN(c2ccccc2)CC1, the Potency was inconclusive: 12.6 µM [inhibitor, partial curve, poor fit]. For COc1ccc(NC(=O)N2CCN(C(=O)C(Cc3ccc(F)cc3)NC(C)=O)CC2)cc1 (centres undefined), the Potency was “inactive”. With Cn1c(/C=C/c2ccc(Cl)cc2)c([N+](=O)[O-])c(=O)n(C)c1=O the Potency was inconclusive: 17.8 µM [inhibitor, single point]. For c1ccc2nc(N3CCCC3)c(N3CCCC3)nc2c1, the Potency was “inactive”. In the case of CC12CC(c3ccccc3O1)N(C(=O)c1ccco1)C(=S)N2c1ccccc1 (centres undefined), the Potency is reported as “inactive”. With Cc1cccc(N2CCN(C(=O)C3CCN(S(=O)(=O)c4cccs4)CC3)CC2)c1C the Potency was inconclusive: 2.51 µM [inhibitor, partial curve, poor fit]. In the case of COc1ccc(NC(=O)CSc2ccccc2)c(OC)c1, the Potency is reported as “inactive”. For CCCCCCSc1ccc(-c2nc3ccc(Cl)cn3c2NCCCC)cc1OC, the Potency was inconclusive: 0.631 µM [inhibitor, partial curve, poor fit]. In the case of O=C(Cn1cnc(S(=O)(=O)N2CCCC2)c1)Nc1ccc(OC(F)(F)F)cc1, the Potency is reported as “inactive”. With COc1cc(CNc2ncc(-c3ccc(Br)cc3)n2C)cc(OC)c1OC the Potency was inconclusive: 10 µM [inhibitor, partial curve, poor fit]. In the case of Cc1ccc(S(=O)(=O)Nc2ccc(Br)cc2C(NCC(=O)O)c2ccccc2)cc1 (centres undefined), the Potency is reported as inconclusive: 12.6 µM [inhibitor, single point]. In the case of Cc1sc2nc(C3CC3)nc(N3CCN(C(=O)c4ccccc4F)CC3)c2c1C, the Potency is reported as inconclusive: 35.5 µM [inhibitor, single point]. For O/N=C/c1ccccc1OCc1ccccc1F, the Potency was inconclusive: 14.1 µM [inhibitor, single point]. For COc1cc(CN(C)c2ccc(S(=O)(=O)N3CCCC3)cn2)ccc1OC(F)F, the Potency was inconclusive: 11.2 µM [inhibitor, partial curve, poor fit]. For COc1cccc(CNC(=O)CSc2c3c(nc4ccc(Cl)cc24)CCCC3)c1OC, the Potency was inconclusive: 12.6 µM [inhibitor, partial curve, poor fit]. In the case of COc1ccc(NC(=O)CN2C(=O)NC3(CC(C)CC(C)(C)C3)C2=O)cc1S(=O)(=O)N1CCCCC1 (centres undefined), the Potency is reported as inconclusive: 7.94 µM [inhibitor, partial curve, poor fit]. With C(C#CCCCCCCCCC[n+]1ccccc1)#CCCCCCCCCC[n+]1ccccc1 the Potency was active: 11.2 µM. For CC1=NN(C(=O)c2ccc(Cn3cc(Br)c([N+](=O)[O-])n3)o2)C(O)(C(F)(F)F)C1 (centres undefined), the Potency was inconclusive: 3.55 µM [inhibitor, partial curve, poor fit]. With CC(=O)c1ccc(N2CCC(c3cc(-c4ccc(Cl)cc4)n[nH]3)CC2)c([N+](=O)[O-])c1 the Potency was inconclusive: 5.62 µM [inhibitor, full curve]. In the case of Cc1cccc(N2CCN(S(=O)(=O)c3ccc4c(c3)NC(=O)C(C)S4)CC2)c1C (centres undefined), the Potency is reported as active: 15.8 µM. In the case of CC(C)CNC(=O)NC(=O)COC(=O)c1cccc(NS(=O)(=O)c2ccc(F)c(F)c2)c1, the Potency is reported as inconclusive: 17.8 µM [inhibitor, single point]. For Oc1cccc(Nc2c3ccccc3nc3ccccc23)c1, the Potency was inconclusive: 28.2 µM [inhibitor, single point]. With COc1ccc(CCn2c(N)c(C(=O)NCc3ccco3)c3nc4ccccc4nc32)cc1 the Potency was inconclusive: 17.8 µM [inhibitor, single point]. With CN(Cc1ccccc1)S(=O)(=O)c1ccc(S(=O)(=O)N(Cc2ccc(F)cc2)C2CCCC2)cc1 the Potency was inconclusive: 11.2 µM [inhibitor, partial curve]. With CCc1cccc(NC(=O)Cn2c(=O)n(CCc3ccc(OC)c(OC)c3)c(=O)c3ccccc32)c1 the Potency was “inactive”. In the case of N#Cc1ccsc1NC(=O)CCN1C(=O)C2CCCCC2C1=O (centres undefined), the Potency is reported as inconclusive: 35.5 µM [inhibitor, single point]. With CCOC(=O)Cc1csc(NC(=O)CCc2ccccc2)n1 the Potency was inconclusive: 35.5 µM [inhibitor, single point]. With Cc1ccn2c(NC3CCCCC3)c(-c3cccc(-c4cccc(Cl)c4)c3)nc2c1 the Potency was inconclusive: 35.5 µM [inhibitor, single point]. With COc1ccc(-c2csc(NC(=O)C3CCCO3)n2)cc1 (centres undefined) the Potency was inconclusive: 35.5 µM [inhibitor, single point]. For CCC1CCCCN1CCCNC(=O)CSc1nc2nc(C)c(Cc3ccccc3Cl)c(C)n2n1 (centres undefined), the Potency was “inactive”. With CC(C)CN1C(=O)c2ccc(NC(=O)c3ccco3)cc2C1=O the Potency was “inactive”. With Cc1ccc(-n2nnc3c(SCC(=O)NCc4ccco4)ncnc32)cc1 the Potency was inconclusive: 22.4 µM [inhibitor, single point]. In the case of CCOC(=O)N1CCN(C(=O)c2ccc3c(=O)n(-c4ccc(F)cc4)c(=S)[nH]c3c2)CC1, the Potency is reported as inconclusive: 3.98 µM [inhibitor, single point]. With Cn1nnnc1Sc1ncnc2scc(-c3ccc[nH]3)c12 the Potency was inconclusive: 0.141 µM [inhibitor, full curve, poor fit]. In the case of Cc1ccc(CNC(=O)CN(c2ccc(Cl)cc2Cl)S(=O)(=O)c2ccccc2)cc1, the Potency is reported as inconclusive: 15.8 µM [inhibitor, single point]. For COC(=O)c1ccccc1NC(=S)NC(=O)C1CC1, the Potency was inconclusive: 22.4 µM [inhibitor, single point]. With Cc1ccc(C(=O)NC2CCS(=O)(=O)C2)cc1S(=O)(=O)N1CCCC1 (centres undefined) the Potency was “inactive”. With Cc1ccc(-n2nc3c(N4CCCC(C(=O)NCCc5ccccc5)C4)nnc(C)c3c2C)cc1 (centres undefined) the Potency was inconclusive: 8.91 µM [inhibitor, partial curve, poor fit]. In the case of Cc1nc(N2CCOCC2)c2c(C(=O)N3CCN(c4cccc(C)c4C)CC3)c(C)oc2n1, the Potency is reported as inconclusive: 11.2 µM [inhibitor, single point]. With CCOc1ccccc1NC(=O)c1cc(S(=O)(=O)NCc2ccco2)ccc1F the Potency was inconclusive: 14.1 µM [inhibitor, single point]. For Nc1ccccc1SC(CC(=O)c1ccccc1)c1ccc([N+](=O)[O-])cc1 (centres undefined), the Potency was inconclusive: 17.8 µM [inhibitor, partial curve]. In the case of Cc1ccc(NC(=O)c2ccc(CSc3nccc(C)n3)cc2)cc1, the Potency is reported as inconclusive: 3.55 µM [inhibitor, partial curve, poor fit]. With CCOC(=O)C1CCN(CCC(=O)Nc2ccc(OC)cc2)CC1 the Potency was “inactive”. With CCOC(=O)N1C(=O)[C@@](c2ccc(Cl)cc2)(C(C)C)N1C(=O)OCC the Potency was inconclusive: 35.5 µM [inhibitor, single point]. In the case of COc1cc(C=O)c(Br)cc1OCC(=O)NCCc1ccccc1, the Potency is reported as inconclusive: 6.31 µM [inhibitor, single point]. In the case of Cc1ccccc1OCCN1CCC(Cc2ccccc2)CC1, the Potency is reported as “inactive”. For CC(OC(=O)C1=COCCO1)C(=O)NC(C)c1ccc(Cl)cc1Cl (centres undefined), the Potency was “inactive”. In the case of COc1ccc(C)cc1S(=O)(=O)Nc1ccc2c(c1)OCO2, the Potency is reported as “inactive”. For CCc1nnc(N/N=C/c2ccc(N3CCC(C)CC3)c([N+](=O)[O-])c2)n1N, the Potency was active: 10 µM. With Nc1ncnc2c1ncn2[C@@H]1O[C@H](CNC(=O)[C@@H]2CCC(=O)N2)[C@@H](O)[C@H]1O the Potency was inconclusive: 6.31 µM [inhibitor, single point]. With CCc1nc2ccc(C(=O)Nc3cc(-c4ccccc4)ccc3OC)cn2c1N(CC)CC(=O)N(C)C the Potency was inconclusive: 28.2 µM [inhibitor, single point]. With OC(Cc1cccc(Br)c1)c1ncc(-c2ccccc2C(F)(F)F)[nH]1 (centres undefined) the Potency was inconclusive: 35.5 µM [inhibitor, single point]. With CCCC(=O)NC(c1ccc(Cl)cc1Cl)c1ccc2cccnc2c1O (centres undefined) the Potency was inconclusive: 4.47 µM [inhibitor, full curve, poor fit]. With CC(=O)c1cccc(NC(=O)c2cc3nc(-c4ccc(Br)cc4)cc(C(F)(F)F)n3n2)c1 the Potency was inconclusive: 6.31 µM [inhibitor, partial curve, poor fit]. With Cc1cnc(C(=O)Nc2cccc3cccnc23)cn1 the Potency was active: 2.82 µM. With COCCSc1nnc(NC(=O)CCS(=O)(=O)c2ccccc2)s1 the Potency was inconclusive: 12.6 µM [inhibitor, partial curve, poor fit]. In the case of COc1ccc(S(=O)(=O)Nc2ccc3c(c2)C(=O)N([C@H](C)CO)C[C@H](C)[C@@H](CN(C)C(=O)Nc2ccc(C(F)(F)F)cc2)O3)cc1, the Potency is reported as inconclusive: 1 µM [inhibitor, full curve, poor fit].
